# Source: article PMC4401446, “Structural Effects of Protein Aging: Terminal Marking by Deamidation in Human Triosephosphate Isomerase” (PLoS ONE, 2015)
# Molecular target: the molecule itself
# Test: SEC; protein at 500 ug/mL incubated 3 hours at 30°C, then Superdex 75 in 50 mM Tris-HCl pH 8.0, 150 mM NaCl, 5% (v/v) glycerol, calibrated with molecular mass standards; dimer to monomers
protein,measurement,value
"human triosephosphate isomerase, wild type (enzyme, Triosephosphate isomerase, human; the WT HsTIM gene subcloned into pET-HisTEVP (NdeI/BamHI); also called HsTIM; WT HsTIM; source: E. coli BL21-CodonPlus (DE3)-RIL, purified (IMAC, TEVP cleavage, second IMAC); not shown: His6, N-terminal, cleaved) not shown",stoichiometry N,2
